In PubChem BioAssay AID1477 (National Center for Advancing Translational Sciences (NCATS), 2009):
The whole screen tested about 230,000 compounds, of which fewer than 10 were called active. Inconclusive means that the source gave no clear call. Such entries were picked first, then a sample of the others. Calls follow the shape of the dose curve; as a rule, active = well fitted curve in the direction sought with a large enough effect; inconclusive = small, poorly fitted or top-dose-only effect, or effect the other way, or another doubt; inactive = no such curve, though single readings can be large or run the other way. No potency is given beside an inconclusive call; the fits are too rough.

target: Runt-related transcription factor 1 (Homo sapiens) + Core-binding factor subunit beta (Homo sapiens) (UniProt Q01196+Q13951); assay: qHTS Assay for Compounds Blocking the Interaction Between CBF-beta and RUNX1 for the Treatment of Acute Myeloid Leukemia; conditions: AlphaScreen CBFb-His/RUNX1-biotin binding, biochemical; series mostly up to 59.8 µM
UniProt Q01196, sequence (Q01196 whole entry, looked up): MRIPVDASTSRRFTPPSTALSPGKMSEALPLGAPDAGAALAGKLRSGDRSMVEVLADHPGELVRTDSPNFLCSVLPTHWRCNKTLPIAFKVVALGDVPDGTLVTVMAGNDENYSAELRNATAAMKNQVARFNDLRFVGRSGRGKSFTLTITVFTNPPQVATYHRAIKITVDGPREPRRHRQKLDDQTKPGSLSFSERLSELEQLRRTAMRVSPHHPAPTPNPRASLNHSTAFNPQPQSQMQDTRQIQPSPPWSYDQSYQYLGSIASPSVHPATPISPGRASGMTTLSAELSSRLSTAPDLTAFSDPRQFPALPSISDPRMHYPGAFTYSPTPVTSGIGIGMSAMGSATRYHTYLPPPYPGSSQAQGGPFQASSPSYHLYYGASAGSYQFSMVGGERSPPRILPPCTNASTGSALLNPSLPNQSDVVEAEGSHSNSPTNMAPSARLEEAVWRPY
UniProt Q01196, sequence (Q13951 whole entry, looked up): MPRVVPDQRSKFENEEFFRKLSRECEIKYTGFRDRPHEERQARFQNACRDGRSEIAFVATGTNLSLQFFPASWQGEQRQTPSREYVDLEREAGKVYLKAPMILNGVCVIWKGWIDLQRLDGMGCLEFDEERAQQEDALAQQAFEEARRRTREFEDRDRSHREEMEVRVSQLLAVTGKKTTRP
Outline: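 Compounds were screened at multiple concentrations against a preformed CBF-beta(His)/RUNX1(biotin) complex (30 nM of each) for 15 min at room temperature, followed by 90 min with nickel and streptavidin beads and AlphaScreen reading.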

Question: How did the Potency turn out when `C=CCn1c(SCc2nc3scc(-c4ccccc4)c3c(=O)[nH]2)nnc1-c1ccccc1F` was run?
Answer: inconclusive [inhibitor, single point]

Question: `CCN(CC)CCOC(=O)c1ccc(N/C=C(/C#N)c2nc(-c3ccc(OC)c(OC)c3)cs2)cc1` was tested. Which Potency did it give?
Answer: inconclusive [activator, partial curve]

Question: With `Cc1ccc2c(c1)-c1ncc(C(=O)c3cc(Br)ccc3O)cc1CO2` as the compound, how does the Potency read?
Answer: inconclusive [inhibitor, single point]

Question: How did the Potency turn out when `C=CCn1c(Sc2ncc([N+](=O)[O-])s2)n[nH]c1=O` was run?
Answer: inactive

Question: For `Cc1cc(C(=O)COC(=O)c2ccncc2)c(C)n1Cc1ccco1`, which Potency is on record?
Answer: inconclusive [inhibitor, single point]

Question: For `CC(=O)Oc1ccc2c(C)cc(=O)oc2c1`, which Potency is on record?
Answer: inactive

Question: How did the Potency turn out when `Nc1nc2ccc(Cl)cc2c2nc(-c3ccco3)nn12` was run?
Answer: inconclusive [activator, single point]

Question: For `COc1c(OC(C)=O)ccc(/C=N\NC(=O)c2ccc(Br)cc2)c1[N+](=O)[O-]`, which Potency is on record?
Answer: inactive

Question: For `CCc1ccc(OCc2nc(-c3ccccn3)no2)c(Br)c1`, which Potency is on record?
Answer: inconclusive [activator, partial curve, poor fit]

Question: `c1ccc(OCCSc2nnnn2-c2ccccc2)cc1` was tested. Which Potency did it give?
Answer: inconclusive [activator, single point]

Question: `CCc1ccc(NC(=O)C2CCCN(S(=O)(=O)c3c(C)[nH]c(=O)[nH]c3=O)C2)cc1` (stereo not given) was tested. Which Potency did it give?
Answer: inconclusive [inhibitor, single point]

Question: For `Cc1nc2ccc3nc(NC(=O)c4ccc5c(c4)OCCO5)sc3c2s1`, which Potency is on record?
Answer: inconclusive [activator, partial curve]

Question: With `COc1ccc(-n2c(Cc3cccn3C)nnc2SCC(=O)Nc2cccc(F)c2)cc1` as the compound, how does the Potency read?
Answer: inactive

Question: Which Potency does the source give for `COC(=O)C1(C)C=CC2(CCCCC2)N1C(C)=O` (stereo not given) here?
Answer: inconclusive [inhibitor, single point]

Question: `C/C(=N\NC(=O)c1c[nH]c2ccccc12)c1ccccn1` was tested. Which Potency did it give?
Answer: inconclusive [inhibitor, single point]

Question: `Cc1ccc(C(=O)c2c(NC(=O)c3ccncc3)sc3c2CCCC3)cc1` was tested. Which Potency did it give?
Answer: inconclusive [inhibitor, partial curve]

Question: `Cc1ccc(-c2nn(-c3ccccc3)cc2/C=N/NC(=O)c2ccncc2)o1` was tested. Which Potency did it give?
Answer: inactive

Question: With `COc1ccc(CNc2ccc(C)c(C)c2)c(OC)c1OC` as the compound, how does the Potency read?
Answer: inconclusive [inhibitor, partial curve]

Question: `O=C(c1ccccc1)N1CCN(c2ccc([N+](=O)[O-])c(NCc3ccco3)c2)CC1` was tested. Which Potency did it give?
Answer: inconclusive [inhibitor, single point]

Question: Which Potency does the source give for `CC(C)c1cccc2nc3c(c([Si](C)(C)C)c12)Cn1c-3cccc1=O` here?
Answer: inconclusive [activator, partial curve]

Question: With `COc1ccc(N2CCN(c3nc4c(c(=O)n(C)c(=O)n4C)n3Cc3ccccc3)CC2)cc1` as the compound, how does the Potency read?
Answer: inactive

Question: For `CC(C)c1nnc(NC(=O)CSc2nc3ccccc3s2)s1`, which Potency is on record?
Answer: inactive

Question: How did the Potency turn out when `COc1ccc(CCNC(=O)COC(=O)C2CCCCC2)cc1` was run?
Answer: inconclusive [inhibitor, full curve, poor fit]

Question: How did the Potency turn out when `COc1ccc(S(=O)(=O)Nc2cc(OC)cc3cccnc23)cc1` was run?
Answer: inactive

Question: With `c1ccc(-c2nnc3n2N=C(c2ccc4c(c2)OCO4)CS3)nc1` as the compound, how does the Potency read?
Answer: inconclusive [inhibitor, single point]

Question: How did the Potency turn out when `Cc1cc2ccccn2c1C(=O)c1ccc(NN)c([N+](=O)[O-])c1` was run?
Answer: inconclusive [inhibitor, single point]

Question: Which Potency does the source give for `COc1cc2c(cc1NC(=O)c1cccc(F)c1)CCCC2` here?
Answer: inconclusive [activator, full curve, poor fit]

Question: With `Cc1cccc(NC(=O)c2ccc(-c3ccccc3[N+](=O)[O-])o2)c1` as the compound, how does the Potency read?
Answer: inactive

Question: Which Potency does the source give for `Fc1cccc(CSc2ccc3nnc(-c4ccccn4)n3n2)c1` here?
Answer: inconclusive [inhibitor, single point]

Question: `Cc1cc(-c2ccccc2)n2ncc(-c3ccccc3)c2n1` was tested. Which Potency did it give?
Answer: inconclusive [activator, partial curve]

Question: `CC(=O)N1CCC(N(CCN2CCOCC2)C(=S)Nc2cc(C)cc(C)c2)CC1` was tested. Which Potency did it give?
Answer: inconclusive [inhibitor, single point]

Question: How did the Potency turn out when `Cc1ccc(-c2noc(C3CCN(S(=O)(=O)c4ccc5c(c4)OCCO5)CC3)n2)o1` was run?
Answer: inactive

Question: How did the Potency turn out when `Nc1ncnc2c1c(-c1ccc(Oc3ccccc3)cc1)cn2C1CCCC1` was run?
Answer: inconclusive [inhibitor, single point]

Question: How did the Potency turn out when `COc1ccc(-c2nc3ccccc3nc2-c2ccccc2)cc1` was run?
Answer: inconclusive [activator, partial curve]

Question: With `CCOC(=O)c1c(C)[nH]c(C)c1C(=O)COC(=O)c1cc2ccccc2cc1O` as the compound, how does the Potency read?
Answer: inconclusive [inhibitor, single point]

Question: With `NC(=O)C1CCN(C(=O)CSc2nc3ccccc3o2)CC1` as the compound, how does the Potency read?
Answer: inactive

Question: With `O=C1NC(=S)N/C1=C/c1cccn1-c1ccc([N+](=O)[O-])cc1` as the compound, how does the Potency read?
Answer: inconclusive [inhibitor, partial curve]

Question: Which Potency does the source give for `NCCNCCN` here?
Answer: inconclusive [inhibitor, single point]

Question: For `COc1ccc(-c2nn(CCC(=O)O)cc2/C=C2\SC(N)=NC2=O)cc1`, which Potency is on record?
Answer: inconclusive [inhibitor, single point]

Question: `COc1ccc(CCc2nnc(CCC(=O)N(C)Cc3ccncc3C)o2)cc1` was tested. Which Potency did it give?
Answer: inactive

Question: For `Cn1c(O)c(/C=C2\N=c3ccccc3=C2CCNC(=S)NC2CC2)c(=O)n(C)c1=O`, which Potency is on record?
Answer: inactive

Question: Which Potency does the source give for `O=C1C2CC=C(Cl)CC2C(=O)N1CN(Cc1ccco1)CN1C(=O)C2CC=C(Cl)CC2C1=O` (stereo not given) here?
Answer: inconclusive [inhibitor, single point]

Question: How did the Potency turn out when `C1CNCCNCCCNCCNC1` was run?
Answer: inconclusive [activator, single point]

Question: `CC(=O)OCC(=O)NCc1ccc2c(c1)OCO2` was tested. Which Potency did it give?
Answer: inconclusive [inhibitor, single point]

Question: For `CCOCCOC(=O)c1[nH]c2c(c1C)C(=O)CC(c1ccc(N(C)C)cc1)C2` (stereo not given), which Potency is on record?
Answer: inconclusive [inhibitor, single point]
